# According to the supplement of paper PMC8728848:
# Some of the results follow.
# B1: PA-IL (Pseudomonas aeruginosa) (protein)
# chain: AWKGEVLANNEAGQVTSIIYNPGDVITIVAAGWASYGPTQKWGPQGDREHPDQGLICHDAFCGALVMKIGNSGTIPVNTGLFRWVAPNNVQGAITLIYNDVPGTYGNNSGSFSVNIGKDQS
# Assays:
# Assay in all cases: glycan array binding signal (z-score within array); higher = stronger binding
# Conditions in all cases: glycan notation: IUPAC condensed, linker removed
# [1] = biological target: Neu5Ac(a2-3)Gal(b1-3)[Neu5Ac(a2-6)]GalNAc
# Outline: (§1)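 The binding signal is a Z-score computed within each array and averaged over linkers. Arrays of the same protein sequence at different concentrations or buffers were also averaged together. Data originate from 3228 arrays in the Consortium for Functional Glycomics database, kept only where the protein sequence was available.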
# Neu5Ac(a2-3)Gal(b1-4)Glc = biological target: Neu5Ac(a2-3)Gal(b1-4)Glc
# Outline: as §1
# [2] = biological target: Neu5Ac(a2-3)Gal(b1-4)GlcNAc
# Outline: as §1
# [3] = biological target: Neu5Ac(a2-3)Gal(b1-4)GlcNAc(b1-2)Man(a1-3)[Neu5Ac(a2-3)Gal(b1-4)GlcNAc(b1-2)Man(a1-6)]Man(b1-4)GlcNAc(b1-4)GlcNAc
# Outline: as §1
# [4] = biological target: Neu5Ac(a2-3)Gal(b1-4)GlcNAc(b1-3)Gal(b1-4)GlcNAc
# Outline: as §1
# [5] = biological target: Neu5Ac(a2-3)Gal(b1-4)GlcNAc(b1-3)Gal(b1-4)GlcNAc(b1-3)Gal(b1-4)GlcNAc
# Outline: as §1
# [6] = biological target: Neu5Ac(a2-3)Gal(b1-4)GlcNAc(b1-3)Gal(b1-4)[Fuc(a1-3)]GlcNAc
# Outline: as §1
# [7] = biological target: Neu5Ac(a2-3)Gal(b1-4)GlcNAc6S
# Outline: as §1
# [8] = biological target: Neu5Ac(a2-3)Gal(b1-4)[Fuc(a1-3)]GlcNAc
# Outline: as §1
# [9] = biological target: Neu5Ac(a2-3)Gal(b1-4)[Fuc(a1-3)]GlcNAc(b1-3)Gal
# Outline: as §1
# [10] = biological target: Neu5Ac(a2-3)Gal(b1-4)[Fuc(a1-3)]GlcNAc(b1-3)Gal(b1-4)GlcNAc
# Outline: as §1
# [11] = biological target: Neu5Ac(a2-3)Gal(b1-4)[Fuc(a1-3)]GlcNAc(b1-3)Gal(b1-4)[Fuc(a1-3)]GlcNAc(b1-3)Gal(b1-4)[Fuc(a1-3)]GlcNAc
# Outline: as §1
# [12] = biological target: Neu5Ac(a2-3)Gal(b1-4)[Fuc(a1-3)]GlcNAc6S
# Outline: as §1
# [13] = biological target: Neu5Ac(a2-3)Gal6S(b1-4)GlcNAc
# Outline: as §1
# [14] = biological target: Neu5Ac(a2-3)Gal6S(b1-4)[Fuc(a1-3)]GlcNAc
# Outline: as §1
# Neu5Ac(a2-3)GalNAc = biological target: Neu5Ac(a2-3)GalNAc
# Outline: as §1
# [15] = biological target: Neu5Ac(a2-3)GalNAc(b1-4)GlcNAc
# Outline: as §1
# [16] = biological target: Neu5Ac(a2-3)[GalNAc(b1-4)]Gal(b1-4)Glc
# Outline: as §1
# [17] = biological target: Neu5Ac(a2-3)[GalNAc(b1-4)]Gal(b1-4)GlcNAc
# Outline: as §1
# [18] = biological target: Neu5Ac(a2-3)[Neu5Ac(a2-6)]GalNAc
# Outline: as §1
# Neu5Ac(a2-6)Gal = biological target: Neu5Ac(a2-6)Gal
# Outline: as §1
# Neu5Ac(a2-6)Gal(b1-4)Glc = biological target: Neu5Ac(a2-6)Gal(b1-4)Glc
# Outline: as §1
# [19] = biological target: Neu5Ac(a2-6)Gal(b1-4)GlcNAc
# Outline: as §1
# [20] = biological target: Neu5Ac(a2-6)Gal(b1-4)GlcNAc(b1-3)Gal(b1-4)GlcNAc
# Outline: as §1
# [21] = biological target: Neu5Ac(a2-6)Gal(b1-4)GlcNAc(b1-3)Gal(b1-4)[Fuc(a1-3)]GlcNAc(b1-3)Gal(b1-4)[Fuc(a1-3)]GlcNAc
# Outline: as §1
# [22] = biological target: Neu5Ac(a2-6)Gal(b1-4)GlcNAc6S
# Outline: as §1
# Neu5Ac(a2-6)GalNAc = biological target: Neu5Ac(a2-6)GalNAc
# Outline: as §1
# [23] = biological target: Neu5Ac(a2-6)GalNAc(b1-4)GlcNAc
# Outline: as §1
# Neu5Ac(a2-8)Neu5Ac = biological target: Neu5Ac(a2-8)Neu5Ac
# Outline: as §1
# [24] = biological target: Neu5Ac(a2-8)Neu5Ac(a2-3)Gal(b1-4)Glc
# Outline: as §1
# [25] = biological target: Neu5Ac(a2-8)Neu5Ac(a2-3)[GalNAc(b1-4)]Gal(b1-4)Glc
# Outline: as §1
# [26] = biological target: Neu5Ac(a2-8)Neu5Ac(a2-8)Neu5Ac
# Outline: as §1
# [27] = biological target: Neu5Ac(a2-8)Neu5Ac(a2-8)Neu5Ac(a2-3)Gal(b1-4)Glc
# Outline: as §1
# [28] = biological target: Neu5Ac(a2-8)Neu5Ac(a2-8)Neu5Ac(a2-3)[GalNAc(b1-4)]Gal(b1-4)Glc
# Outline: as §1
# [29] = biological target: Neu5Ac(a2-8)Neu5Ac(a2-8)Neu5Ac(a2-8)Neu5Ac(a2-3)[GalNAc(b1-4)]Gal(b1-4)Glc
# Outline: as §1
# Neu5Ac(b1-6)GalNAc = biological target: Neu5Ac(b1-6)GalNAc
# Outline: as §1
# [30] = biological target: Neu5Ac(b2-6)Gal(b1-4)GlcNAc
# Outline: as §1
# [31] = biological target: Neu5Ac9Ac(a2-6)Gal(b1-4)GlcNAc
# Outline: as §1
# [32] = biological target: Neu5Gc(a2-3)Gal(b1-3)GlcNAc
# Outline: as §1
# [33] = biological target: Neu5Gc(a2-3)Gal(b1-3)[Fuc(a1-4)]GlcNAc
# Outline: as §1
# Neu5Gc(a2-3)Gal(b1-4)Glc = biological target: Neu5Gc(a2-3)Gal(b1-4)Glc
# Outline: as §1
# [34] = biological target: Neu5Gc(a2-3)Gal(b1-4)GlcNAc
# Outline: as §1
# [35] = biological target: Neu5Gc(a2-3)Gal(b1-4)[Fuc(a1-3)]GlcNAc
# Outline: as §1
# [36] = biological target: Neu5Gc(a2-6)Gal(b1-4)GlcNAc
# Outline: as §1
# Neu5Gc(a2-6)GalNAc = biological target: Neu5Gc(a2-6)GalNAc
# Outline: as §1
binder,measurement,setting,value
B1,glycan array binding signal (z-score),[1],-0.365
same,glycan array binding signal (z-score),Neu5Ac(a2-3)Gal(b1-4)Glc,-0.365
same,glycan array binding signal (z-score),[2],-0.365
same,glycan array binding signal (z-score),[3],-0.364
same,glycan array binding signal (z-score),[4],-0.365
same,glycan array binding signal (z-score),[5],-0.365
same,glycan array binding signal (z-score),[6],-0.365
same,glycan array binding signal (z-score),[7],-0.365
same,glycan array binding signal (z-score),[8],-0.364
same,glycan array binding signal (z-score),[9],-0.365
same,glycan array binding signal (z-score),[10],-0.365
same,glycan array binding signal (z-score),[11],-0.365
same,glycan array binding signal (z-score),[12],-0.365
same,glycan array binding signal (z-score),[13],-0.365
same,glycan array binding signal (z-score),[14],-0.365
same,glycan array binding signal (z-score),Neu5Ac(a2-3)GalNAc,-0.365
same,glycan array binding signal (z-score),[15],-0.365
same,glycan array binding signal (z-score),[16],-0.364
same,glycan array binding signal (z-score),[17],-0.365
same,glycan array binding signal (z-score),[18],-0.365
same,glycan array binding signal (z-score),Neu5Ac(a2-6)Gal,-0.365
same,glycan array binding signal (z-score),Neu5Ac(a2-6)Gal(b1-4)Glc,-0.365
same,glycan array binding signal (z-score),[19],-0.365
same,glycan array binding signal (z-score),[20],-0.365
same,glycan array binding signal (z-score),[21],-0.365
same,glycan array binding signal (z-score),[22],-0.365
same,glycan array binding signal (z-score),Neu5Ac(a2-6)GalNAc,-0.365
same,glycan array binding signal (z-score),[23],-0.365
same,glycan array binding signal (z-score),Neu5Ac(a2-8)Neu5Ac,-0.365
same,glycan array binding signal (z-score),[24],-0.362
same,glycan array binding signal (z-score),[25],-0.365
same,glycan array binding signal (z-score),[26],-0.365
same,glycan array binding signal (z-score),[27],-0.365
same,glycan array binding signal (z-score),[28],-0.365
same,glycan array binding signal (z-score),[29],-0.365
same,glycan array binding signal (z-score),Neu5Ac(b1-6)GalNAc,-0.365
same,glycan array binding signal (z-score),[30],-0.365
same,glycan array binding signal (z-score),[31],-0.365
same,glycan array binding signal (z-score),[32],-0.365
same,glycan array binding signal (z-score),[33],-0.365
same,glycan array binding signal (z-score),Neu5Gc(a2-3)Gal(b1-4)Glc,-0.364
same,glycan array binding signal (z-score),[34],-0.363
same,glycan array binding signal (z-score),[35],-0.365
same,glycan array binding signal (z-score),[36],-0.365
same,glycan array binding signal (z-score),Neu5Gc(a2-6)GalNAc,-0.365
